Experimental data reported in the supplement of paper PMC12217912.
The other results are listed elsewhere or left out. Sequences were assembled here from the parent chain. Values near 0.05 are background.

B1: TEV protease; numbered along this chain (parent)
chain: MGESLFKGPRDYNPISSSICHLTNESDGHTTSLYGIGFGPFIITNKHLFRRNNGTLVVQSLHGVFKVKDTTTLQQHLVDGRDMIIIRMPKDFPPFPQKLKFREPQREERICLVTTNFQTKSMSSMVSDTSCTFPSGDGIFWKHWIQTKDGQCGSPLVSTRDGFIVGIHSASNFTNTNNYFTSVPKNFMELLTNQEAQQWVSGWRLNADSVLWGGHKVFMVKPEEPFQPVKEATQL

Variants of: B1
Experiment: raw area under fraction-flipped curve 0-4 h after induction (AUC4h, not background-subtracted), DNA-recorder readout of cleavage of the substrate (dimensionless); higher = more cleavage of the substrate by the protease variant
Conditions: temperature: 34 °C; time window: 0-4 h after rhamnose induction
Method: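 In vivo DNA recorder in E. coli TOP10(DE3) ΔrhaA at 34 °C. Each TEVp single-site mutant (parent TEVp 0) is paired with a single-site variant of the 7-mer TEVs (canonical ENLYFQ|S). The substrate sits between flexible linkers in a Bxb1-sfGFP-TEVs-SsrA fusion, so cleavage stabilises Bxb1 and speeds flipping of a recombination array, read by NGS. The value is the raw area under the fraction-flipped curve over 0-4 h after rhamnose induction (AUC4h), with ≥20 reads per time point. It is not background-subtracted; inactive controls average about 0.047.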
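Also: Bxb1 expression induced with 0.2% (w/v) L-rhamnose at OD600 near 0.5, cultures sampled hourly, flipped fraction per protease–substrate barcode pair counted by paired-end Illumina sequencing.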

Row | Variant | area with substrate ENLYFQA | area with substrate ENLYFQD | area with substrate ENLYFQI | area with substrate ENLYFQK | area with substrate ENLYFQM | area with substrate ENLYFQR | area with substrate ENLYFQS | area with substrate ENLYFQT | area with substrate ENLYFQV | area with substrate ENLYFQY | area with substrate ENLYFQC | area with substrate ENLYFQG | area with substrate ENLYFQL | area with substrate ENLYFQN | area with substrate ENLYFQW | area with substrate ENLYFQE | area with substrate ENLYFQF | area with substrate ENLYFQP | area with substrate ENLYFQH | area with substrate ENLYFQQ
1 | V126D | 0.0869 | 0.0864 | 0.0656 | 0.0589 | 0.0945 | 0.0558 | 0.099 | 0.0701 | 0.062 | 0.117 | – | – | – | – | – | – | – | – | – | –
2 | N177W | 0.0641 | – | 0.069 | – | – | – | 0.0753 | 0.0559 | – | – | 0.0691 | 0.0422 | 0.0584 | 0.0564 | 0.0776 | – | – | – | – | –
3 | N177F | 0.0802 | 0.0603 | 0.0536 | 0.0621 | – | 0.0574 | 0.0793 | 0.0625 | 0.0509 | 0.0304 | – | 0.0671 | 0.0567 | 0.0634 | 0.0539 | 0.0587 | 0.0658 | 0.064 | – | –
4 | G136I | 0.14 | – | 0.0597 | 0.0617 | 0.141 | 0.0555 | 0.102 | 0.0588 | 0.0428 | – | 0.135 | 0.0909 | – | 0.0854 | 0.0655 | – | – | – | 0.145 | –
5 | L156A | 0.11 | – | – | 0.0618 | – | 0.0682 | 0.092 | 0.0613 | 0.0884 | 0.0725 | 0.102 | 0.0887 | 0.044 | 0.0717 | 0.0842 | – | – | – | 0.0868 | –
6 | L156P | 0.0495 | 0.0486 | 0.0464 | 0.0665 | 0.0483 | 0.0253 | 0.0546 | 0.0449 | 0.0492 | – | 0.0567 | 0.058 | 0.0599 | – | 0.0534 | 0.0531 | – | – | – | –
7 | L156F | 0.087 | – | – | 0.0471 | 0.0697 | 0.0569 | 0.0649 | 0.0724 | – | – | 0.0581 | 0.0741 | 0.0607 | 0.0468 | 0.0577 | – | – | – | – | –
8 | N178L | 0.0782 | – | – | 0.0687 | 0.151 | – | 0.117 | – | – | – | 0.118 | – | – | 0.0789 | 0.0774 | 0.0868 | 0.0888 | 0.0446 | 0.104 | –
9 | N178P | 0.0613 | – | – | 0.0738 | 0.0537 | 0.0503 | 0.0705 | 0.0602 | – | – | – | – | 0.0477 | 0.0657 | – | 0.0394 | 0.0545 | 0.0449 | – | –
10 | T159H | 0.0725 | – | – | 0.0535 | 0.102 | – | 0.113 | – | – | – | 0.115 | 0.145 | – | – | 0.0492 | – | – | – | 0.0487 | –
11 | T181W | 0.0667 | 0.0369 | 0.0619 | 0.0702 | 0.0463 | 0.0675 | 0.0587 | – | 0.05 | – | 0.0508 | – | 0.0543 | 0.0528 | – | – | – | – | – | –
12 | S158K | 0.0452 | – | – | 0.0422 | – | 0.0461 | 0.05 | 0.0563 | – | 0.0447 | 0.0634 | 0.0514 | 0.0449 | – | – | – | 0.0492 | – | 0.0676 | –
13 | S158Q | 0.0462 | – | 0.0745 | 0.054 | 0.0572 | 0.0478 | 0.0613 | 0.0594 | 0.0406 | – | – | 0.0516 | 0.0603 | 0.0506 | 0.064 | – | – | – | 0.0451 | 0.0541
14 | Q146G | 0.0852 | – | 0.039 | 0.0928 | 0.0771 | 0.0699 | 0.112 | 0.0653 | 0.0872 | – | 0.11 | – | 0.0641 | – | 0.0593 | – | – | – | 0.118 | –
15 | F187S | 0.0644 | – | 0.0628 | – | 0.0656 | 0.0546 | 0.0632 | 0.0631 | – | 0.0593 | – | 0.0799 | 0.056 | 0.0494 | 0.0563 | – | – | 0.058 | – | 0.0324
16 | S169H | 0.0396 | – | 0.0597 | 0.0646 | 0.0509 | 0.0651 | 0.0552 | – | – | 0.0427 | 0.0531 | 0.0518 | 0.0635 | 0.0246 | 0.0571 | – | 0.0488 | 0.0462 | – | –
17 | S169L | 0.0688 | – | 0.0645 | 0.0571 | – | – | 0.0593 | 0.0614 | – | 0.061 | 0.0538 | 0.0538 | 0.0592 | – | 0.0485 | – | – | – | 0.0665 | –
18 | S169V | 0.0556 | – | 0.0659 | 0.0753 | 0.0364 | 0.0588 | 0.0728 | 0.0518 | 0.055 | 0.0567 | 0.0709 | – | – | 0.081 | 0.0429 | – | – | 0.032 | – | –
19 | V157C | 0.0728 | 0.0689 | 0.0757 | 0.0731 | 0.0751 | 0.0612 | 0.102 | 0.0706 | – | 0.0931 | 0.0985 | – | 0.0773 | – | 0.059 | 0.0936 | – | – | 0.0721 | –
20 | V157K | 0.0532 | – | 0.0715 | – | 0.0409 | – | 0.0637 | – | 0.0382 | – | – | – | 0.0541 | 0.0607 | – | – | – | – | – | –
21 | D149W | 0.0725 | – | – | 0.0483 | 0.0659 | 0.0301 | 0.0752 | 0.0568 | 0.0614 | – | 0.103 | – | 0.0652 | 0.0561 | – | – | – | – | 0.0704 | –
22 | D149E | 0.102 | – | – | 0.0597 | – | 0.0498 | 0.0975 | 0.0548 | – | 0.041 | 0.105 | 0.0888 | 0.0657 | – | 0.0649 | – | – | 0.0586 | 0.0602 | 0.0612
23 | H143V | 0.0671 | – | 0.0552 | 0.034 | 0.0502 | 0.0492 | 0.0738 | – | 0.0488 | 0.079 | 0.0997 | 0.0761 | 0.0597 | 0.0593 | 0.0627 | – | 0.0456 | 0.0612 | 0.0668 | 0.0572
24 | H143Y | 0.14 | – | 0.0559 | 0.0591 | – | 0.0471 | 0.128 | 0.0544 | 0.0644 | – | – | – | 0.0571 | – | – | – | – | 0.0467 | – | 0.097
25 | H143Q | 0.0604 | – | 0.0578 | 0.05 | 0.0591 | 0.0544 | 0.0612 | 0.0516 | 0.0654 | 0.0581 | – | – | 0.0551 | 0.0439 | 0.0668 | 0.0548 | – | – | 0.054 | 0.0477
26 | H143E | 0.0666 | 0.0736 | 0.047 | 0.0537 | 0.0523 | 0.0652 | 0.0577 | 0.0424 | 0.0615 | 0.0563 | 0.0565 | 0.0289 | – | 0.0428 | – | 0.0826 | 0.0537 | 0.0536 | 0.0554 | –
27 | W141D | 0.0422 | – | 0.0542 | 0.0548 | 0.0735 | 0.0524 | 0.0562 | – | – | 0.0595 | – | – | 0.0598 | – | – | – | – | – | 0.0486 | –
28 | M188F | 0.0844 | 0.0543 | – | 0.0547 | – | 0.0576 | 0.0984 | – | – | – | 0.128 | – | 0.0669 | 0.0404 | 0.0398 | – | – | 0.0622 | 0.0819 | 0.068
